Laboratory results reported in paper PMC4336329 (PLoS ONE, 2015).
In all, about 310,000 compounds went through this assay and about 2,200 (0.71%) showed an effect of 50% or more. The effect is printed as a negative number. Some of the results follow.

Biological target: human ether-à-go-go-related gene (hERG) potassium channel (human, UniProt Q12809)
Assay: primary screen, population patch clamp on CHO cells stably expressing hERG

Sequence of human ether-à-go-go-related gene (hERG) potassium channel (Q12809 whole entry, looked up): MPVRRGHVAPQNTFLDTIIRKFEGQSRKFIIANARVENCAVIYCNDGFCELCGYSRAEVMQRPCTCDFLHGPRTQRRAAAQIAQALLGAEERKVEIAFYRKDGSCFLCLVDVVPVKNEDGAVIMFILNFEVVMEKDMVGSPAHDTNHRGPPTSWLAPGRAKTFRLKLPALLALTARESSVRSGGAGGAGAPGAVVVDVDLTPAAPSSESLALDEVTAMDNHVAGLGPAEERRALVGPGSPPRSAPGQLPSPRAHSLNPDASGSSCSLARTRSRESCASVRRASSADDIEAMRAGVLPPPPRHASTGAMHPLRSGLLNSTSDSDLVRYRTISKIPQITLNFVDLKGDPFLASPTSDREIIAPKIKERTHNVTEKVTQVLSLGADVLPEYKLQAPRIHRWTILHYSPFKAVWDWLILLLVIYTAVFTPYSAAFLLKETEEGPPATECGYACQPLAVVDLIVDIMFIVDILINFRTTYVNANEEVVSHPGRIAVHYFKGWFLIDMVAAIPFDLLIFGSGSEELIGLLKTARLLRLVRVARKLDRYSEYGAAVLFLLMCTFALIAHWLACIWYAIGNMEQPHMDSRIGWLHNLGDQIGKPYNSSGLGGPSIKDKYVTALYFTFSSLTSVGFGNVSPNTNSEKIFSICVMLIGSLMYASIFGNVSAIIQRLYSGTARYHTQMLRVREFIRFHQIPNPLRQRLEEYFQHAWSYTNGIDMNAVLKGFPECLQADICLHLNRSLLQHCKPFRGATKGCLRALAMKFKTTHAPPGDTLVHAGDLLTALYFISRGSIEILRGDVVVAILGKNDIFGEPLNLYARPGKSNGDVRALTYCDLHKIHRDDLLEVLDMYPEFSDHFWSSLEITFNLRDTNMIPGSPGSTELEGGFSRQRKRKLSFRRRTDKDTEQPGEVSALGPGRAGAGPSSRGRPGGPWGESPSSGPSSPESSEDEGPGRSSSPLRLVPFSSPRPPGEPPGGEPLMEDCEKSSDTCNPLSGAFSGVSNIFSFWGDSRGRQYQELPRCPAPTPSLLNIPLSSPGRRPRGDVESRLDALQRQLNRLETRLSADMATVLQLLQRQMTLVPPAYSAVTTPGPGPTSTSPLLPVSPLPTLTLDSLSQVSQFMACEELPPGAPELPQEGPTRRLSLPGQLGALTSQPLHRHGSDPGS

Compound | hERG current change (%, negative = inhibition) at 1uM [%]
COc1ccc(OC)c(-c2cc(C(=O)N/N=C/c3cc(OC)c(OC)cc3OC)c3ccccc3n2)c1 | 10.2
O=C(Nc1ccccc1)N1CCN(c2ncccn2)CC1 | 6.7
CCOc1[nH]n(-c2ccccc2)c(=O)c1C=Nc1ccc(C)cc1 | -22.1
O=C1ON=C(c2ccccc2[N+](=O)[O-])/C1=C/c1cccc([N+](=O)[O-])c1O | 7.67
N=c1c(-c2nc3ccccc3[nH]2)cc(C(=O)c2cccs2)nn1-c1ccccc1 | -2.22
CCOC(=O)C1(Cc2cccc(F)c2)CCN(C(=O)C2CCC2)CC1 | 10.1
Cc1ccc(C)n1-c1ccc(C(=O)N2CCOCC2)cc1 | 16.6
FC(F)Sc1ccc(N=C2NN=C(c3ccc4c(c3)OCCO4)CS2)cc1 | 4.45
CCC(C(=O)N1CCc2cc(OC)c(OC)cc2C1)c1ccccc1 (stereo not shown) | 16.3
CC(C)(C)c1nnc(NC(=O)c2cc(-c3ccccc3)nc3ccccc23)s1 | 1.65
COc1ccc(-c2csc3ncnc(Oc4ccc5c(C)cc(=O)oc5c4)c23)cc1 | 12.4
CCOc1ccccc1NC(=O)C(CC)Sc1nc2ccncc2[nH]1 (stereo not shown) | 0.26
CCOC(=O)N1CCN(C(=O)c2ccc3c(=O)n(-c4cc(OC)ccc4OC)c(=S)[nH]c3c2)CC1 | 16.3
Cc1cccc(NC(=O)c2cccc(N3C(=O)C4C5CCC(C5)C4C3=O)c2)c1C (stereo not shown) | -4.35
Cc1cc2ccccn2c1C(=O)Nc1cccc(Cl)c1 | 33
COc1ccc(C2=NN(C(=O)CN3CCOCC3)C(c3nc4ccccc4[nH]3)C2)cc1 (stereo not shown) | 9.04
O=S(=O)([N-]c1nc2ccccc2nc1-[n+]1ccc(-c2ccncc2)cc1)c1ccccc1 | 3.21
CC1(C)Oc2ccc3ccc(=O)oc3c2-c2cnoc21 | 15.8
Cc1nn(Cc2ccc(C(=O)N3N=C(C(F)F)CC3(O)C(F)F)o2)c(C)c1[N+](=O)[O-] (stereo not shown) | -1.34
Nc1c(N(Cc2ccco2)C(=O)COc2ccccc2Cl)c(=O)[nH]c(=O)n1Cc1ccccc1 | 1.81
CCOC(=O)CSc1nc(-c2ccncc2)ccc1C#N | -10.9
CCOC(=O)c1ccc2c(c1)NC(=O)C(N1CCN(c3ccc(OC)cc3)CC1)S2 (stereo not shown) | 7.56
